Out of some 310,000 compounds screened, about 14,000 (4.5%) showed an effect of 50% or more. Effects have a minus sign here. This is one part of the list.
target: human ether-à-go-go-related gene (hERG) potassium channel (human, UniProt Q12809); test: primary screen, population patch clamp on CHO cells stably expressing hERG
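Further: peak tail current of the secondary pulse compared with the same well before compound.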

human ether-à-go-go-related gene (hERG) potassium channel, sequence (Q12809 whole entry, looked up): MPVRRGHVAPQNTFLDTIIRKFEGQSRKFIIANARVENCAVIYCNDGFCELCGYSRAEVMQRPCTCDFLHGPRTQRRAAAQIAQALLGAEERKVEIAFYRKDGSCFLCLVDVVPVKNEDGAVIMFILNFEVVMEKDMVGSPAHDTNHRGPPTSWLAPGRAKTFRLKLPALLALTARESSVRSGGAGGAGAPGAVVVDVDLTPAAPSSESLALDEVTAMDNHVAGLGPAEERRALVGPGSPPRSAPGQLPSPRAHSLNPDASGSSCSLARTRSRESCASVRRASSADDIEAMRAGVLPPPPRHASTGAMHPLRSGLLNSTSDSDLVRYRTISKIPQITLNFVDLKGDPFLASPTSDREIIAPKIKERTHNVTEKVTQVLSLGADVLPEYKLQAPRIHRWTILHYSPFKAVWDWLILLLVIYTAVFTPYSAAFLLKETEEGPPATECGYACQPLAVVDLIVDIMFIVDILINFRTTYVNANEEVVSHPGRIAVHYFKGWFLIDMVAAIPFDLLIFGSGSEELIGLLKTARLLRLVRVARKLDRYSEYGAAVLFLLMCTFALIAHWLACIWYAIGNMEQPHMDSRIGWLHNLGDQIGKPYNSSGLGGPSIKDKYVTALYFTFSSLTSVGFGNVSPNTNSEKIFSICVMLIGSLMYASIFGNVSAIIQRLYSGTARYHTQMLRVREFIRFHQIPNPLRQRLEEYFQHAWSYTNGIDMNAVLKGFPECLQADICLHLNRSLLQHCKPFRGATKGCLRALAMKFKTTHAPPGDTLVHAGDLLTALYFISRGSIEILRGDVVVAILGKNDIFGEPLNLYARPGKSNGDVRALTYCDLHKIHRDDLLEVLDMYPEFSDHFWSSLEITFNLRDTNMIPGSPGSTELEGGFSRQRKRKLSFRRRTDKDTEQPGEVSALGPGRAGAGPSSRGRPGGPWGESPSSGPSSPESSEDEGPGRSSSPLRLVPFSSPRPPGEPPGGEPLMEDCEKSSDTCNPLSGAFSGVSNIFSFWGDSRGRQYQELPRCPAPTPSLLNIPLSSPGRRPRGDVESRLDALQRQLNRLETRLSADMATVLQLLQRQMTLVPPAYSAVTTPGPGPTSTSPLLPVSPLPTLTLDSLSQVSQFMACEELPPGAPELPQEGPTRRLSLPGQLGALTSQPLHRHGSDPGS

SMILES	hERG current change (%, negative = inhibition) at 10uM [%]
COc1ccc(-c2sc(Nc3ccccc3)n[n+]2C)c(C)c1C.[Cl-]	-1.19
CC(C)(C)NC(=O)CN(C(=O)c1ccc(Cl)nc1)c1cccc2ccccc12	-21.4
O=C(Cn1c(=O)cnc2ccccc21)N1CCN(S(=O)(=O)c2cccc([N+](=O)[O-])c2)CC1	4.07
N#Cc1cc(Oc2ccc(Cl)cc2)c(N2CCOCC2)cc1C#N	-1.79
COCCNC(=O)CSCc1nc(-c2ccc(SC)cc2)oc1C	-10
Cc1cccc(C(=O)N2CCN(CCNC(=O)C(=O)Nc3ccc(F)cc3)CC2)c1	-38.8
Cc1ccc2[nH]c3c(NCc4ccccc4)ncnc3c2c1	-32.7
Cc1c(-c2ccccc2)cn2c1-c1ccc(C)n1CC2	-0.42
O=C(NCC(c1ccco1)N1CCc2ccccc2C1)c1ccc(F)cc1 (stereo not shown)	-10.7
CC(=O)c1cccc(NC(=O)c2cc(-c3ccco3)nc3ccccc23)c1	11.4
C=CCNC(=O)c1sccc1Oc1ccc(F)cc1[N+](=O)[O-]	-15.2
O=C(O)c1ccccc1-c1nnc2c(Cl)cc(C(F)(F)F)cn12	20.8
Cc1cc(C)n(-c2ccc(C(=O)OCC(=O)NCc3ccc(F)cc3)cc2)n1	5.33
CN(C)S(=O)(=O)c1cccc(NC(=S)N/N=C/C(c2ccccc2)c2ccccc2)c1	1.1
O=S(=O)(c1ccc2c(c1)OCCO2)N1CCC(O)(c2ccc(Cl)cc2)CC1	-12.2
CCCCCCSC1=C(C#N)C(=O)NC2(CCCCC2)S1	16
Nc1c(Cl)cc(C2=NCCn3nc4cc([N+](=O)[O-])ccc4c32)cc1Cl	-22.9
CN(C)CCCNC(=O)c1ccccn1	7.54
Cc1onc(-c2c(Cl)cccc2Cl)c1C(=O)N(C)Cc1ccccc1	12.7
O=C(NNC(=S)Nc1ccccc1)c1ccc2ncccc2c1	32.6
CCCNC(=O)C(Sc1ccccc1)c1ccccc1 (stereo not shown)	-1.18
CCc1ccc2[nH]c(O)c(N=Nc3nc(-c4ccccc4)cs3)c2c1	7.61

SMILES	hERG current change (%, negative = inhibition) at 10uM [%]
CC(C)C(C(=O)NCC1CCCO1)N(Cc1ccco1)C(=O)CNS(=O)(=O)c1ccccc1 (stereo not shown)	5.62
CN(N)N=Nc1nc2c([nH]1)c(=O)n(C)c(=O)n2C	0.0258
O=C1C2CCCN2C(=O)N1CCCN1CCN(c2cccc(Cl)c2)CC1 (stereo not shown)	-2.8
COc1ccc2nc(NC(=O)c3cc(C)oc3C)sc2c1	6.94
CNCCCOc1cccc(Oc2ccccc2)c1.O=C(O)C(=O)O	-17.2
CCN(CC)C(=O)C1CCCN(Cc2ccccc2F)C1 (stereo not shown)	15.4
Nc1cc(=O)[nH]c(SCc2ccc(Cl)cc2Cl)n1	22.1
CCCN1CCCC(C(=O)c2cc(C)c(OC)c(C)c2)C1 (stereo not shown)	-3.65
O=C(Nc1nc2ccsc2c(=O)s1)c1ccco1	13.6
COc1ccc(S(=O)(=O)N2CCCOC2CNC(=O)C(=O)NCCCn2ccnc2)cc1 (stereo not shown)	-3.17
CC(NC(=O)N1CCN(c2ccccc2F)CC1)c1ccc(F)c(F)c1 (stereo not shown)	18.7
CN1CCC(=C(c2ccccc2)c2ccc(Br)cc2)CC1.Cl	-68.3
Cc1ccc(CNC(=O)CS(=O)Cc2nc(-c3ccccc3Cl)oc2C)cc1 (stereo not shown)	-13.3
Cc1ccc(C(=O)Nc2ccc3c(c2)nc2n3CCSC2)cc1	-42.6
Cc1ccc(NC(=O)CCNS(=O)(=O)c2ccccc2)cc1S(=O)(=O)N1CCOCC1	3.54
COCCn1c(SCCN2CCCCC2)nc2ccccc2c1=O	-78.4
O=C(CSCc1ccc(Cl)cc1Cl)Nc1ccc(O)cc1C(=O)O	14.2
Cc1csc(=O)n1CC(=O)OCC(=O)NC(C)c1ccc(F)cc1 (stereo not shown)	0.61
O=C(CSc1nnnn1C1CCCCC1)NCc1ccccc1	0.514
CCOC(=O)c1cc2c(OC)ccc(OC)c2n1CC(=O)c1ccccc1	0.305
CN(C)C(CNC(=O)c1ccc(Cl)c(S(=O)(=O)N2CCCCCC2)c1)c1ccccc1 (stereo not shown)	-67.5
COc1ccc(OC)c(S(=O)(=O)N2CCc3ccccc32)c1	-6.4

SMILES	hERG current change (%, negative = inhibition) at 10uM [%]
Cn1c(=O)c2c(SCC(=O)Nc3ccccc3F)nc(-c3ccccc3F)nc2n(C)c1=O	6.44
O=C1CN(C(=O)COC(=O)CNC(=O)c2ccc(Br)o2)c2ccccc2N1	-32.1
Cc1cc(C)cc(NC(=S)NC2CC3CCCC(C2)N3CC(C)C)c1 (stereo not shown)	-7.32
COc1cccc(Nc2c(F)c(OC)c(F)c(F)c2C(=O)O)c1	16.5
Cc1nc(SCC(=O)NC2CCCC2)c2c(C)c(C)sc2n1	-4.48
O=C(CN1CCN(S(=O)(=O)c2ccccc2)CC1)Nc1ccc(Cl)c([N+](=O)[O-])c1	-65
COc1ccc(C)cc1-n1c(-c2ccncc2)n[nH]c1=S	11.3
CCN1C(=C(C#N)C#N)C=Cc2cc(C)ccc21	15.7
Cc1ccc(OC(C)C(=O)N2CC(=O)Nc3ccccc32)cc1 (stereo not shown)	-67.7
CCCC(=O)Nc1cccc(NC(=O)c2cccc([N+](=O)[O-])c2C)c1	-12.8
Cc1cc(C(=O)NCc2cc(C(=O)O)oc2C)c(C)o1	4.42
Cc1noc(C)c1COc1ccccc1C(=O)N1CCN(c2cccc(Cl)c2)CC1	-30.6
CN(C[C@H](Cc1ccccc1)N(C[C@H](c1ccccc1)N(CCc1ccccc1)N=O)N=O)N=O.[Na+]	-2.64
CCOc1ccc(NC(=O)C2CC(=O)OC2c2ccccc2)cc1 (stereo not shown)	6.5
COc1ccc(CNCC(O)(c2ccc(F)cc2)c2ccc(F)cc2)cc1OC	-62.1
Cc1cccc(NC(=O)CN(CC2CCCO2)C(=O)c2oc3ccccc3c2C)c1C (stereo not shown)	-11.3
CCOC(=O)Cc1cnc(NC(=O)Cn2nnc(-c3ccc(OCC)cc3)n2)s1	-7.58
Cc1ccc(S(=O)(=O)N(C)Cc2cc3cc(C)ccc3[nH]c2=O)cc1	-3.76
Cc1ccc2nc(SCC(=O)NCc3cccs3)[nH]c2c1	-15.7
CCCCn1c(=O)c(CCC(=O)OCC(=O)NC(=O)NCCC(C)C)nc2ccccc21	-9.31
Brc1ccc([C@H]2CN3CCSC3=N2)cc1.O=C(O)C(=O)O	-35.7
O=C(COC(=O)/C=C/c1cccc([N+](=O)[O-])c1)NCc1ccco1	29.8

SMILES	hERG current change (%, negative = inhibition) at 10uM [%]
Cc1sc2ncn(CC(=O)NCCCC(=O)N3CCN(c4ncccn4)CC3)c(=O)c2c1C	7.64
COc1ccc(NC(=O)c2cccc3c2C(=O)c2ccc(-c4cnc(OC)nc4)cc2S3(=O)=O)cc1	11.8
CCOC(=O)C1(CCOc2ccccc2)CCN(C(=O)CCSC)CC1	-42
CC(=O)c1ccc(N2CCN(C(=O)c3ccco3)CC2)c(F)c1	-25.2
Cn1c2ccc(F)cc2c2ncn(CCN3CCOCC3)c(=O)c21	-43.1
CCC(C)C(NC(=O)c1ccccc1NC(=O)c1ccccc1)C(=O)O (stereo not shown)	-10.2
Cc1c(C#N)sc2nc(-c3ccccc3)nc(N3CCCC3)c12	18.1
Cl.c1ccc(COc2ccccc2CNC23CC4CC(CC(C4)C2)C3)cc1	-83.6
CSc1ncccc1C(=O)OCC(=O)c1ccc(Br)s1	-1.56
Nc1nc2c(c(=O)[nH]1)C(c1ccccc1)C1=C(N2)c2ccccc2C1=O (stereo not shown)	1.33
CCOc1ccccc1OCCCC(=O)Nc1ccc(Cl)c(S(=O)(=O)N2CCOCC2)c1	-26
O=C(O)CC1Sc2ccccc2NC1=O (stereo not shown)	-13.4
COCCN=c1scc(-c2ccco2)n1/N=C/c1ccc(O)c(O)c1O	2.11
COC(=O)C1=C(C(=O)OC)[C@@H]2Nc3ccccc3[C@@]23C[C@@H](C(=O)OC)N(C(=O)c2cccs2)C3=N1	-39.8
CCOP(=O)(OCC)C(NC(=O)c1ccc(OC)cc1)C(Cl)(Cl)Cl (stereo not shown)	0.174
CCOC(=O)N1CCN(C(=O)c2cccc(S(=O)(=O)Nc3ccc(Br)cc3)c2)CC1	-23.9
O=C(CC1(O)C(=O)Nc2ccccc21)c1cccnc1 (stereo not shown)	2.13
Cn1c(CSc2nc3ccccc3s2)nnc1SCC(=O)NCc1cccnc1	-5.4
CCOC(=O)C1=C(COC(=O)Cc2c(F)cccc2Cl)NC(=O)NC1C (stereo not shown)	-6.5
COc1cc(C(=O)N/N=C/c2ccccn2)cc(OC)c1OC	6.72
COC(=O)c1cccc(Nc2ncnc3sccc23)c1	-14.4
N#Cc1cccc(NC(=S)Nc2ccccc2)c1	-0.837

From paper PMC4336329 (PLoS ONE, 2015)
